# Reference: the supplement of paper PMC11369174, “Proteome-scale characterisation of motif-based interactome rewiring by disease mutations” (Molecular Systems Biology, 2024)
# The list shows a part of the results. Read counts after selection give these values, which scatter widely.
# T1: GGA1_VHS__Q9UJY5_1_157
# T1 chain: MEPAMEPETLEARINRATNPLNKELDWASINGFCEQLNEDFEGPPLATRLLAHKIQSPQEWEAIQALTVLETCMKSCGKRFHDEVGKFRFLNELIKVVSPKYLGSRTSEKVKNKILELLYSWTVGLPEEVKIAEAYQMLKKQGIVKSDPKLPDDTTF
# T2: GGA3_VHS__Q9NZ52_1_166
# T2 chain: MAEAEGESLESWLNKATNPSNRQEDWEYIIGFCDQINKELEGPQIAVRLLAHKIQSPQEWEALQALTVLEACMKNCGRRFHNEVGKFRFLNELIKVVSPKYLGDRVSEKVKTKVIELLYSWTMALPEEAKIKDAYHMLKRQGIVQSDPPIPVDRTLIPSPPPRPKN
# T3: GEF_Sec7__Q9Y6D5_639_829
# T3 chain: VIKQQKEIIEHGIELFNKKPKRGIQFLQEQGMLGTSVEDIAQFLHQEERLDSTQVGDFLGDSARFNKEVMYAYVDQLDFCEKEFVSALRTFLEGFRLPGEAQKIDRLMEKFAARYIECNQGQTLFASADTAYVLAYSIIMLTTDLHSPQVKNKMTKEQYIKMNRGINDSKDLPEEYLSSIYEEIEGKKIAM
# Biological target: T1, GGA1_VHS__Q9UJY5_1_157
# Test: mean normalised NGS count of phage-displayed peptide after selection on bait (% of reads); baits are purified protein domains named by gene / domain / UniProt id / residues; peptides come from disordered regions of human proteins; higher = stronger enrichment / binding
# Details: replicate selections in which the peptide was seen: 3
row,Binder,mean normalised NGS count
1,HPDEDDTLVDSPAVTP [PKD1 3623-3638 mut P98161.E3632D],0.769
2,DMDDVVDADEYLILQQ [EGFR 1006-1021 mut P00533.P1019L],0.0146
3,SHGPDAKLLAGGEDVA [NTRK1 603-618 wt],0.0659
4,SYGPDAKLLAGGEDVA [NTRK1 603-618 mut P04629.H604Y],0.145
5,HQDKRDDVLIGLKSAA [COQ2 253-268 mut Q96H96.T267A],0.0162
6,VTKTSVTLTWDPPLLD [TTN 22890-22905 wt],0.236
7,KLASNLGVEDENLLAG [POLR3B 513-528 mut Q9NW08.V523E],0.0142
8,SWEDAALLTEANPPAP [BSCL2 351-366 mut Q96G97.L363P],0.0141
9,PDLPLLTALTQDQEFA [ALMS1 224-239 wt],0.0228
10,VGDQELLQITPQGTRD [BRCA1 199-214 wt],0.251
11,YVTLTWDPPLLDGGSK [TTN 22894-22909 mut Q8WZ42.S22894Y],0.0166
12,DSPEPVTEINEDSVLI [PALB2 208-223 wt],0.0815
13,DDTLVDSPAVTPVSAR [PKD1 3627-3642 mut P98161.E3632D],0.123
14,QDVEDINILSLTDEEP [SOS1 178-193 wt],0.488
15,VGDQELLQITPQGTRG [BRCA1 199-214 mut P38398.D214G],0.0106
16,DAFHHQVHDDDLLSSS [EMD 128-143 wt],0.0599
17,DVKLLYPVSKYQQDQV [PIK3R1 421-436 wt],0.124

# Biological target: T2, GGA3_VHS__Q9NZ52_1_166
# Test: as above
# Details: replicate selections in which the peptide was seen: 3
row,Binder,mean normalised NGS count
1,YAWNADTDLVSWLSPH [PQBP1 64-79 mut O60828.Y65C],0.0266
2,LSPLPSQAMDDLMLSP [TP53 32-47 wt],0.0515
3,DDLLVDLDHQRQSAAN [MYH9 1423-1438 wt],0.0257

# Biological target: T1, GGA1_VHS__Q9UJY5_1_157
# Test: as above
# Details: replicate selections in which the peptide was seen: 2
row,Binder,mean normalised NGS count
1,SQEAASSFGDDRLLIE [PCCA 246-261 wt],0.0266
2,VAQNSKQSGEDSKMLV [KMT2C 390-405 mut Q8NEZ4.C394S],0.0181
3,EELLSDMKADVTLLPA [CHD5 1869-1884 mut Q12873.R1881L],0.713
4,VNKATYASVGDQELLQ [BRCA1 191-206 wt],0.151
5,EELLSDMKADVTLLPA [CHD3 1869-1884 mut Q12873.R1881L],0.713
6,DDSDDDPVLIPGARYQ [DCAF6 655-670 mut Q58WW2.R670Q],0.0102
7,IFGSAKASQEADSVLI [TWNK 573-588 mut Q96RR1.N585S],0.0198
8,EELLSDMKADVTLLPA [CHD4 1869-1884 mut Q12873.R1881L],0.713
9,VTKTYVTLTWDPPLLD [TTN 22890-22905 mut Q8WZ42.S22894Y],0.00733
10,SWEDAALLTEANLPAP [BSCL2 351-366 wt],0.0105

# Same assay, conditions: replicate selections in which the peptide was seen: 5
row,Binder,mean normalised NGS count
1,AWNIAGTSENDDQLLF [DPF2 329-344 mut Q92785.C330W],1.53
2,DAKLLAVGEDVAPGPL [NTRK1 607-622 mut P04629.G613V],0.429
3,IFALAVEDIETDTELL [PRDM5 105-120 mut Q9NQX1.Y107C],53.8
4,LSTLPSQAMDDLMLSP [TP53 32-47 mut P04637.P34T],3.77
5,QQELDDLLVDLDHQRQ [MYH9 1419-1434 wt],2.65
6,SHGPDAKLLAVGEDVA [NTRK1 603-618 mut P04629.G613V],0.559
7,NLGVEDVNLLRGEELS [POLR3B 517-532 mut Q9NW08.C527R],5.4
8,LSPFPSQAMDDLMLSP [TP53 32-47 mut P04637.L35F],1.17
9,GGRWISDSHEDTGILD [MYBPC3 279-294 mut Q14896.R282W],1.85
10,LSPLPSQAMDDLMLSP [TP53 32-47 wt],1.7
11,AKASQEADSVLILQDR [TWNK 577-592 mut Q96RR1.N585S],0.423
12,KLASNLGVEDVNLLRG [POLR3B 513-528 mut Q9NW08.C527R],1.97
13,QQDEEMLQLPAPAEVA [MLH1 426-441 mut P40692.E433Q],0.213
14,QQDEEMLELPAPAEVT [MLH1 426-441 mut P40692.A441T],0.65
15,TYASVGDQELLQITPQ [BRCA1 195-210 wt],2.81
16,DDLLVDLDHQRQSAAN [MYH9 1423-1438 wt],3.27
17,DINILSLTDEEPSTSG [SOS1 182-197 wt],0.321

# Biological target: T2, GGA3_VHS__Q9NZ52_1_166
# Test: as above
# Details: replicate selections in which the peptide was seen: 5
row,Binder,mean normalised NGS count
1,AWNIAGTSENDDQLLF [DPF2 329-344 mut Q92785.C330W],0.169
2,LSTLPSQAMDDLMLSP [TP53 32-47 mut P04637.P34T],0.494
3,QQELDDLLVDLDHQRQ [MYH9 1419-1434 wt],0.391
4,GGRWISDSHEDTGILD [MYBPC3 279-294 mut Q14896.R282W],0.318

# Biological target: T3, GEF_Sec7__Q9Y6D5_639_829
# Test: as above
# Details: replicate selections in which the peptide was seen: 6
row,Binder,mean normalised NGS count
1,LTEIRTQYEAMASSNM [GFAP 235-250 mut P14136.K236T],0.963
2,EGVWLTETGMALLRNL [KMT2D 1588-1603 wt],54.8
3,KGVWLTETGMALLRNL [KMT2D 1588-1603 mut O14686.E1588K],0.412
4,QQISAMKLHISQLQHE [DCTN1 1095-1110 mut Q14203.R1101K],20.5
5,LKEIRTQYEVMASSNM [GFAP 235-250 mut P14136.A244V],0.211

# Biological target: T2, GGA3_VHS__Q9NZ52_1_166
# Test: as above
# Details: replicate selections in which the peptide was seen: 4
row,Binder,mean normalised NGS count
1,LSPFPSQAMDDLMLSP [TP53 32-47 mut P04637.L35F],0.255
2,RSDQIYWYWPEDNVAE [TTN 2120-2135 mut Q8WZ42.R2123Q],0.275

# Biological target: T1, GGA1_VHS__Q9UJY5_1_157
# Test: as above
# Details: replicate selections in which the peptide was seen: 4
row,Binder,mean normalised NGS count
1,HQDKRDDVLIGLKSTA [COQ2 253-268 wt],0.551
2,QQDEEMLELPAPAKVA [MLH1 426-441 mut P40692.E439K],0.795

# Biological target: T2, GGA3_VHS__Q9NZ52_1_166
# Test: as above
# Details: replicate selections in which the peptide was seen: 2
row,Binder,mean normalised NGS count
1,EVQPRNWLLFAAHATN [MPC1 72-87 mut Q9Y5U8.K72E],0.026
2,TYASVGDQELLQITPQ [BRCA1 195-210 wt],0.0413

# Same assay, conditions: replicate selections in which the peptide was seen: 6
row,Binder,mean normalised NGS count
1,QQDEEMLQLPAPAEVA [MLH1 426-441 mut P40692.E433Q],13.9
2,QQDEEMLELPAPAKVA [MLH1 426-441 mut P40692.E439K],5.71
3,QQDEEMLELPAPAEVT [MLH1 426-441 mut P40692.A441T],1.27
